Assay results as given in article PMC4336329 (PLoS ONE, 2015).
Hit rate of the full screen: of about 310,000 compounds, about 2,200 (0.71%) showed an effect of 50% or more. The effect is printed as a negative number. The list shows a part of the results.

Each compound was assayed against human ether-à-go-go-related gene (hERG) potassium channel (human, UniProt Q12809) (assay: primary screen, population patch clamp on CHO cells stably expressing hERG).
Method: Briefly, Chinese hamster ovary (CHO) cells stably expressing the hERG channel were dislodged from tissue culture flasks and dispensed into PPC plates. […] During the recording, background leak currents were estimated by a 100 ms step to -80 mV from an initial holding potential of -70 mV and subtracted from the subsequent current measurement. The campaign was conducted in two phases using slight differences in recording protocol. In the first phase, the initial voltage pulse used a 100 ms step to -30 mV from a holding potential of -70 mV, a 2 s conditioning step to +25 mV, and a 2 s test step to -30 mV. During the second phase of the screen, the potential during the conditioning step was raised to +45 mV. In both phases of the campaign, a secondary voltage pulse was applied using the same parameters as the second phase initial pulse. The initial and secondary pulses were applied in the absence of compound, and upon application of 1 μM and 10 μM test concentrations. Small molecule effects on hERG current density were quantified by […].

human ether-à-go-go-related gene (hERG) potassium channel, sequence (Q12809 whole entry, looked up): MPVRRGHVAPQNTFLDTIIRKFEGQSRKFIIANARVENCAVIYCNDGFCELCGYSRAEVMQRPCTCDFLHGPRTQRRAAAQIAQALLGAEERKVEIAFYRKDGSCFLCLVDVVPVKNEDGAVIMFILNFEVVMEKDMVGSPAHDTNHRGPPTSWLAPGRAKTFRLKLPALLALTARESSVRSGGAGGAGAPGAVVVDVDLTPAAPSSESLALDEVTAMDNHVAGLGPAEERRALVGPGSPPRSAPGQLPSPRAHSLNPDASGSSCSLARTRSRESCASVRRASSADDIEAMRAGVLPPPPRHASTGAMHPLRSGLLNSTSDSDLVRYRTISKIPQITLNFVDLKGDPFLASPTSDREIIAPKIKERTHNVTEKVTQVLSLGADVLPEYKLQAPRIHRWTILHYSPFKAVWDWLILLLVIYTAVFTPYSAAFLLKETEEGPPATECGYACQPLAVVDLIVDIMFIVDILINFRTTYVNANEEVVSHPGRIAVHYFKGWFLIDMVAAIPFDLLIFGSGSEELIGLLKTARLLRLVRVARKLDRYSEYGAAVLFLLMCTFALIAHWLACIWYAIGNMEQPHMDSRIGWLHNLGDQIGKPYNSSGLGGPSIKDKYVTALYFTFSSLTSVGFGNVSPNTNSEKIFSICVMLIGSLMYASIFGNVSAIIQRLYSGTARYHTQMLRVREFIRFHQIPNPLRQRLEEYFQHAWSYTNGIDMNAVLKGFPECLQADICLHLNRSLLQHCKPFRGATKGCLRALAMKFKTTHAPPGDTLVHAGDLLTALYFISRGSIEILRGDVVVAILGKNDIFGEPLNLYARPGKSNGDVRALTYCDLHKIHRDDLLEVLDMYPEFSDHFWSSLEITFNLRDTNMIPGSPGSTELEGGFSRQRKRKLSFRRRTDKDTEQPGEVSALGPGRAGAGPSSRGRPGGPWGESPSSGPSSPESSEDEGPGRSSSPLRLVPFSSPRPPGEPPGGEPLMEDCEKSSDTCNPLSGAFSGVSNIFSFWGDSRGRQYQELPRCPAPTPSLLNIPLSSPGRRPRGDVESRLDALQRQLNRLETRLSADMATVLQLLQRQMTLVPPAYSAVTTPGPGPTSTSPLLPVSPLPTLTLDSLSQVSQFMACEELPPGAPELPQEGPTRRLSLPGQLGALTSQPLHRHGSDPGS

Row | Compound | hERG current change (%, negative = inhibition) at 1uM [%]
1 | NC(=S)NN=C(c1ccccc1)c1ccccc1 | 7.98
2 | Cc1ccc(NC(=O)C2=CC(c3ccc(C)cc3)=NS(=O)(=O)N2C)cc1 | -1.75
3 | CN(C)S(=O)(=O)c1ccc(Cl)c(NC(=O)CN2CCC(Cc3ccccc3)CC2)c1 | 11.2
4 | COC(=O)CCC(=O)Nc1ccc(NC(=O)CCC(=O)OC)cc1 | 8.4
5 | CCOc1ccc(NS(=O)(=O)c2ccc(NS(C)(=O)=O)cc2)cc1 | 2.94
6 | CC(Sc1nncn1C)C(=O)Nc1ccc(S(N)(=O)=O)cc1 (stereo not drawn) | 16.2
7 | CCCCCCOc1ccc(OC(=O)c2cccnc2)cc1 | 21.5
8 | Cc1csc(NC(=O)Cc2ccc(F)cc2)n1 | 20.4
9 | CC(C)CNC(=O)c1cccc(NC(=O)c2ccc(NC(=O)c3ccco3)cc2)c1 | -26.1
10 | COc1ccccc1CNS(=O)(=O)c1cccc(S(=O)(=O)N2CCOCC2)c1 | 9.34
11 | COc1cccc(NC(=S)N/N=C2\CC(C)(C)Oc3ccc(O)cc32)c1 | 7.24
12 | Cc1ccc(CNC(=O)c2ccc(C)s2)cc1 | 10.4
13 | O=C(CSc1ncnc2sccc12)Nc1ccccc1F | 1.66
14 | CSc1ccc(/C=C/C(=O)Nc2ccccc2)cc1 | -2.5
15 | Cc1ccc(-n2c(SCC(=O)N/N=C/c3ccccc3C(=O)O)nnc2-c2ccccc2)cc1 | 7.87
16 | C/C(=C\C(=O)c1ccccc1)Nc1ccc2c(c1)OCO2 | 3.23
17 | CCOC(=O)N1CCC(N2CCN(Cc3ccc(F)c(F)c3)C(CCO)C2)CC1 (stereo not drawn) | -13.5
18 | Cn1c(NC(=O)c2cc(Br)ccc2Cl)cc(=O)n(C)c1=O | 14.5
19 | CCOc1ccc(S(=O)(=O)N2CCOCC2)cc1NC(=O)c1ccc(N2CCCC2=O)cc1 | 14.6

Row | Compound | hERG current change (%, negative = inhibition) at 1uM [%]
20 | O=C(C1CC(c2ccc(F)cc2)=NO1)N1CCc2ccccc2C1 (stereo not drawn) | 1.62
21 | Cc1cccc(NC(=S)N2CCN(S(=O)(=O)c3ccc(F)cc3)CC2)c1 | 15.1
22 | COc1ccc(CNS(=O)(=O)c2ccc(S(=O)(=O)NC3CC3)cc2)cc1 | 8.69
23 | O=C(NCCCc1ccc(F)cc1)C1CCC(=O)N(CCN2CCOCC2)C1 (stereo not drawn) | 6.87
24 | CN(C)c1nc(NN)nc(Nc2ccc(F)cc2)n1 | -2.32
25 | Cc1ccc(/C=C2\SC(=S)N(NS(=O)(=O)c3ccc(C)cc3)C2=O)cc1 | 14.6
26 | Cc1ccccc1OCC(=O)OCC(=O)c1ccc(-c2ccccc2)cc1 | 10.9
27 | COc1ccc(N2CCN(C(=O)CSc3nnc4nc(C)cc(C)n34)CC2)cc1 | -2.98
28 | Cc1ccc(Nc2ccc(-n3ccnc3)nn2)cc1C | 1.01
29 | O=C(COc1ccc(Cl)cc1Cl)NCCC1=CCCCC1 | 2.04
30 | CC(O)COc1ccc(/C(=N/O)c2ccccc2)cc1 (stereo not drawn) | 18.4
31 | CCN(C(=O)CSc1nnc(-c2ccco2)n1Cc1ccccc1)C1CCS(=O)(=O)C1 (stereo not drawn) | 6.22
32 | COC(=O)C(C)Sc1nc2c(cnn2-c2ccccc2)c(=O)[nH]1 (stereo not drawn) | 12.9
33 | Cc1nc2ccccc2n1CC(O)COC1CCCCC1 (stereo not drawn) | 2.56
34 | COc1ccc(-c2cc(C(=O)OC(C)C(=O)Nc3c(C)n(C)n(-c4ccccc4)c3=O)c3ccccc3n2)cc1 (stereo not drawn) | -3.79
35 | CC(C)(C)c1ccc(C(=O)Nc2nnc(C3=COCCO3)o2)cc1 | 18
36 | COc1ccc(N2CCN(C(=O)CCNS(=O)(=O)c3cc(Br)cnc3N)CC2)cc1 | 2.98
37 | CCn1cnc2sc(C(=O)N3CCN(Cc4ccc5c(c4)OCO5)CC3)c(C)c2c1=O | 10.5
38 | Cc1cc(C)cc(OC(=O)C23CCC(C)(C(=O)O2)C3(C)C)c1 (stereo not drawn) | 5.55

Row | Compound | hERG current change (%, negative = inhibition) at 1uM [%]
39 | Cc1cc(C)n2nc(SCc3cc(=O)oc4cc(O)ccc34)nc2n1 | 4.5
40 | COc1cc(CNC2CCCCC2OC)cc(OC)c1OC (stereo not drawn) | 12.5
41 | N#Cc1ccc(NC(=S)NC(=O)CCc2ccc(S(=O)(=O)N3CCOCC3)cc2)cc1 | 17.7
42 | COC(=O)c1ccc(COC(=O)CNC(=O)CNC(=O)c2ccc(C)cc2)cc1 | 8.41
43 | Cc1ccc(-n2nnnc2SCC(N)=O)c(C)c1 | 17.2
44 | COc1ccc2c(c1)CC/C2=N\OC(=O)c1ccccc1C | 8.06
45 | Cc1cc(C)c(NC(=S)N(CCCN2CCN(C)CC2)Cc2cccs2)c(C)c1 | -2.21
46 | CN(Cc1ccccc1)Cc1nc2c(c(=O)n(C)c(=O)n2C)n1Cc1ccccc1Cl | -5.53
47 | Cc1ccccc1OCC(=O)N/N=C/C=C/c1ccccc1 | 12.5
48 | O=C(Nc1c2c(nn1-c1ccc(F)cc1)CS(=O)C2)C12CC3CC(CC(C3)C1)C2 (stereo not drawn) | 21.3
49 | O=C(Cn1cccc(C(F)(F)F)c1=O)c1ccc(Cl)cc1 | 9.28
50 | COc1ccccc1/C=C/C=N/N1CCN(c2ccccn2)CC1 | 10.1
51 | NC(=S)NNC(=O)c1cccc(Br)c1 | 1.45
52 | Cc1ccc(NC(=O)C2CCCN(S(=O)(=O)c3c(C)noc3C)C2)c(Br)c1 (stereo not drawn) | 22.5
53 | CCN1CCN(c2nc3c(c(=O)n(C)c(=O)n3C)n2CCSc2nccc(C)n2)CC1 | 6.84
54 | CCOC(=O)C(NC(C)=O)(Nc1ccc(F)cc1)C(F)(F)F (stereo not drawn) | 0.534
55 | C=CCn1c(O)c(C=Nc2ccc(F)cc2)c(=O)[nH]c1=O | 12.4
56 | COc1cc(C(=O)Nc2ccc(-c3nnc(-c4ccco4)o3)cc2)cc(OC)c1OC | 4.71
57 | O=C(Nc1ccc2nc(-c3cccs3)c(-c3cccs3)nc2c1)N1CCOCC1 | 7.6
